Experiments:
[1] = molecular target: rat C-loop peptide antigen (rat); assay: ELISA on plate-coated C-loop peptide conjugate, four-parameter fit; mean ± SD, n = 3
[2] = molecular target: mouse C-loop peptide antigen (mouse); assay: as above

| Binder | Kd [1] [nM] | Kd [2] [nM] |
| --- | --- | --- |
| VH5/Vκ2 Composite Human Antibody variant of HLMC (antibody, human IgG1, kappa) heavy: QAQLVQSGAEVKKPGASVKVSCKASGYLFSNSWMNWVKQRRGAGLEWIGRIFPGDGDTNYNGKFKGRVTITADKSTSTAYMELSSLRSEDTAVYYCARWGLTRDRRLYLDYWGQGTTVTVSS[human IgG1 constant region omitted here] light: DIVMTQSPDSLAVSLGERATINCKSSQSLLYSSNQKNYLAWYQQKPGQAPRLLIYWASTRESGVPDRFTGSGSGTDFTLTISSLQAEDVAVYYCKQYYTYPLTFGQGTKLEIKRTVAAPSVFIFPPSDEQLKSGTASVVCLLNNFYPREAKVQWKVDNALQSGNSQESVTEQDSKDSTYSLSSTLTLSKADYEKHKVYACEVTHQGLSSPVTKSFNRGEC | 0.18 |  |
| VPI-2690B (antibody, human IgG1, kappa) heavy: QVQLVQSGAEVKKPGASVKVSCKASGYLFSNSWMNWVKQRRGAGLEWIGRIFPGDGDTNYNGKFKGRVTITADKSTSTAYMELSSLRSEDTAVYYCARWGLTRDRRLYLDYWGQGTTVTVSS[human IgG1 constant region omitted here] light: DIVMTQSPDSLAVSLGERATINCKSSQSLLYSSNQKNYLAWYQQKPGQAPRLLIYWASTRESGVPDRFTGSGSGTDFTLTISSLQAEDVAVYYCKQYYTYPLTFGQGTKLEIKRTVAAPSVFIFPPSDEQLKSGTASVVCLLNNFYPREAKVQWKVDNALQSGNSQESVTEQDSKDSTYSLSSTLTLSKADYEKHKVYACEVTHQGLSSPVTKSFNRGEC | 0.25 | 2.7 |

Reference: patent publication US20150259422A1
